This passage reports self-cleavage results from the RNAGym collection of RNA variant scans (doi:10.1093/nar/gkz1192).

To fix the notation:
B1: CPEB3 Ribozyme (parent)
chain: UAACAGGGGGCCACAGCAGAAGCGUUCACGUCGCAGCCCCUGUCAGAUUCUGGUGAAUCUGCGAAUUCUGCUGUAUAUCUC

The source gives no read counts; variants with many changes may rest on few reads.

The variants in the data set derive from B1. As to the kind of experiment: self-cleavage, relative activity (ratio to wild type); higher = more cleavage; in vitro, sequencing. The essentials: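 CPEB3 self-cleaving ribozyme mutant libraries were made by rounds of error-prone PCR, barcoded, and transcribed in vitro with T7 RNA polymerase for 5 hours at 37°C. Cleavage occurred during transcription and a 15 min DNase I step before EDTA stop. RNAs were reverse transcribed with template switching and Illumina-sequenced, with DNA sequencing mapping barcodes to variants. Relative activity is the variant's cleaved/total read fraction divided by wild type's (minimum 5 reads), averaged across three batches.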
As to U41A U43A U48C U58C C62U G70C U80A, the self-cleavage turned out to be 0.1. For the variant U41A U49C A56G U67C U80C, the self-cleavage was 0.31. Under U41A A47G U54G U67C stands 0.11; under U41C G63A U66A C68G, 0.3. Take U41A U51C A57G U72C: the self-cleavage stood at 0.38.

As to U41C U43C A56G U69A, the self-cleavage came out at 0.19. As to U41A A45C U51A U76A, the self-cleavage came out at 0.16. Turning to U41A G55A U74C, the self-cleavage turned out to be 0.3. Regarding U41C G52A G53A C59U U60C U69C, the self-cleavage came out at 0.58. On to U41C U43A A47U, for which the self-cleavage worked out at 0.23. The value for U41C A45G A75G U76C was 0.83; that for U41A A47C A56G was 0.13. The value for U41A A45U U54C U58C U60A U69C was 0.05. The value for U41C C44U U60A was 0.21; that for U41C A45G G52A G53A U69A was 0.74; that for U41A U49C U51A U58G U60A was 0.45. With U41C A64U G73A, the self-cleavage turned out to be 0.77.

U41A U43C G53A: the self-cleavage was 0.25. Under U41A A47C G73U stands 0.37. Under U41A A45G U60A U72G stands 0.25; under U41C A45G C59A A75U, 0.28; under U41C U43C A64G U72A, 0.2.

With U41A G53U A57G U74C, the self-cleavage was 0.36. Consider C40U U51C A64G, for which the self-cleavage amounted to 0.5. The value for U41A U51G U67A was 0.11.

As for U41A A45G U48C A65G U66C U72C, the self-cleavage was found to be 0.21.

As for C40U U60A C68U, the self-cleavage is 0.51. The value for U41C U43C C81U was 0.42; that for U41A A45G A57G A65G was 0.18. In the case of U41C A45G A57G, the self-cleavage is 0.62. Regarding U41A U54G U58C A64G U78C U80A, the self-cleavage came to 0.64. For the variant U41C A65U U67C U76C, the self-cleavage is 0.3.

Take U41C A47C U78C: the self-cleavage is 0.32. Turning to U41A A57G U58C A77G, the self-cleavage came out at 0.15. The value for U41A U69A U76A was 0.19; that for U41A U43C G46C U67C U72C was 0.33. Under U41A U48C U54C stands 0.41; under U41A U51A A64G, 0.24.

On to U41A U51A A64U, for which the self-cleavage came out at 0.13. The value for C40U U67C A77G was 0.11; that for U41A U54C U60C U80C was 0.13. Under U41A U60C U72C stands 0.18; under U41A U51C U76A, 0.14. For the variant U41A A45G U51A U74C U76A, the self-cleavage is 0.35. Under U41A C44G C50A U58C U60A stands 0.14; under U41A G61A U72A, 0.44. The value for U41C A57G A65G was 0.59. Under U41A U72A U78C stands 0.14; under U41A U48A U54C A57G U69A U74C, 0.04; under U41A U51C A57G U66C, 0.07. Take U41A A45G U60C U72C: the self-cleavage stood at 0.35. Under U41C A64U U78C stands 0.28. The value for U41C A45G U60C was 1.07; that for U41C G73A U74A was 1.46; that for U41A U43C G46U U54C U72C U76C was 0.1.

With U41A C50A U51C, the self-cleavage is 0.06. Turning to U41A A47G C68G G73A C79A, the self-cleavage is 0.23. In the case of U41A U66A G70A, the self-cleavage was 0.14. The value for U41C U43C A45G A56G A65U was 0.11. The value for U41A U49C U51A U78C was 0.22; that for C40U U51G U60C U69C U74A was 0.09; that for U41A U66C U69G was 0.08. The value for U41A U43A A56G U69A U76C was 0.11; that for U41A U43A U48C C62U was 0.23.

U41A G61A U69C U72C U80C: the self-cleavage came to 0.17. Under U41A U60A A64G U74G stands 0.1. Under U41A U51A A75U U80A stands 0.37.

On to U41C U43A A56G U78A, for which the self-cleavage stood at 0.52. Under U41C A56G U69C stands 0.5; under U41A U72A U80C, 0.29; under U41A U66C U69G U78C, 0.13. As for U41C A45G U58A A65G U72C C79A, the self-cleavage was determined as 0.35. Under U41A U51A U54C A65G U74A U80C stands 0.16; under U41A G52A A75U, 0.56; under U41C A45G G61U A77G, 0.59. Under U41A A45G A47G U67C stands 0.11; under U41C A45G U49C A56G U69C, 0.09; under U41A C62U U72C, 0.36. For the variant U41A A64G U69A, the self-cleavage was found to be 0.16. The value for U41C G42C A56U U76C U78A was 0.21; that for U41A C68A U78C was 0.34.

On to U41A G55U U66C U72C U78G, for which the self-cleavage is 0.04. In the case of C40U U54A U58C, the self-cleavage stood at 0.29. The value for U41A U43A A65G was 0.17.
